Results from PubChem BioAssay (NCI).
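Values below derive from 48-hour exposures of cells grown in 96-well plates, with endpoints linearly interpolated between the two concentrations bracketing the appropriate inhibition level. GI50 marks 50% less growth.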 The source holds more than one record for some entries. The list is limited to them. The source may hold further records. For some assays here: A record mostly stands for its own series of concentrations, not given here; a value can be the end of its range. For some assays here: Results that share an entry are repeated measurements (runs, samples, wells, individuals or studies). Records carry a tag for their origin. A, B and so on number the origins entry by entry.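 At the TGI there is no net growth.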 *1 amine or outer side, *2 acyl side, *3 side chain or, on linkers, in order; H or OH if unused. Where a SMILES comes first, the peptide text is derived from it. Bridges are numbered along the chain shown (N, C = ends). Roman numbers before positions name the chains, in order. [ ]: non-standard residue; d: D form. Actinocin(9to1) = Cc1c2oc3c(C)ccc(C(=O)[*:1])c3nc-2c(C(=O)[*:2])c(N)c1=O; NMeY = CN[CH](Cc1ccc(O)cc1)C(=O)O; Sar = CNCC(=O)O

How the values were obtained:
Experiment in all cases: inhibition of tumour cell growth, NCI panel, 48 h
T-47D breast = test system: T-47D breast
RPMI-8226 leukemia = test system: RPMI-8226 leukemia
MOLT-4 leukemia = test system: MOLT-4 leukemia
NCI-H460 lung = test system: NCI-H460 lung
HS 578T breast = test system: HS 578T breast
A549 NSCLC = test system: A549 NSCLC
CAKI-1 renal = test system: CAKI-1 renal
MALME-3M melanoma = test system: MALME-3M melanoma
SW-620 colon = test system: SW-620 colon
OVCAR-8 ovarian = test system: OVCAR-8 ovarian
ACHN renal = test system: ACHN renal
HOP-92 NSCLC = test system: HOP-92 NSCLC
U251 CNS = test system: U251 CNS
786-0 renal = test system: 786-0 renal
A498 renal = test system: A498 renal
HOP-62 NSCLC = test system: HOP-62 NSCLC
OVCAR-3 ovarian = test system: OVCAR-3 ovarian
SR leukemia = test system: SR leukemia
M14 melanoma = test system: M14 melanoma
TK-10 renal = test system: TK-10 renal
CCRF-CEM leukemia = test system: CCRF-CEM leukemia
MDA-MB-231 breast = test system: MDA-MB-231 breast
LOX IMVI melanoma = test system: LOX IMVI melanoma
HCT-116 colon = test system: HCT-116 colon
PC-3 prostate = test system: PC-3 prostate
SK-MEL-28 melanoma = test system: SK-MEL-28 melanoma
DU-145 prostate = test system: DU-145 prostate
SF-295 CNS = test system: SF-295 CNS
K-562 leukemia = test system: K-562 leukemia
NCI-H226 lung = test system: NCI-H226 lung
COLO 205 colon = test system: COLO 205 colon
MDA-MB-435 = test system: MDA-MB-435
BT-549 breast = test system: BT-549 breast
SK-MEL-5 melanoma = test system: SK-MEL-5 melanoma
HT29 colon = test system: HT29 colon

In the case of C[N+](C)(C)CC1CCCc2ccccc2C1=O (centres undefined), the TGI (T-47D breast) is reported as 3.56 µM and 36.8 µM and the TGI (RPMI-8226 leukemia) is reported as 6.16 µM and 43.6 nM.
In the case of COc1cccc2c1C(=O)c1c(O)c3c(c(O)c1C2=O)C[C@@](O)(C(=O)CO)C[C@@H]3OC1CC(N)CC(C)O1 (some centres undefined), the GI50 (MOLT-4 leukemia) is reported as 60.3 nM [mean of 6 tests] and 1.98 nM [mean of 7 tests], the TGI (MOLT-4 leukemia) is reported as 2 µM [mean of 6 tests] and 23.9 nM [mean of 7 tests] and the GI50 (NCI-H460 lung) is reported as 5.06 nM, 20 nM [mean of 4 tests] and 1.21 nM [mean of 7 tests]. The TGI (HS 578T breast) was 317 nM and 4.33 µM and the TGI (A549 NSCLC) was 279 nM and 8.6 µM.
Cc1c2oc3c(C)ccc(C(=O)NC4C(=O)NC(C(C)C)C(=O)N5CCCC5C(=O)N(C)CC(=O)N(C)C(Cc5ccc(O)cc5)C(=O)OC4C)c3nc-2c(C(=O)NC2C(=O)NC(C(C)C)C(=O)N3CCCC3C(=O)N(C)CC(=O)N(C)C(Cc3ccc(O)cc3)C(=O)OC2C)c(N)c1=O (centres undefined) (I: TVP[Sar][NMeY] / II: TVP[Sar][NMeY]; ester I:1-I:C, II:1-II:C; linker I:N-II:N via Actinocin(9to1); configuration not given here) was tested, and the GI50 (CAKI-1 renal) was > 368 nM [sample A, mean of 2 tests] and 21.8 nM [sample B, mean of 2 tests], the GI50 (MALME-3M melanoma) was 57.3 nM [sample A, 1 test] and 3.33 nM [sample B, 1 test] and the GI50 (SW-620 colon) was 89.5 nM [sample A, mean of 2 tests] and 4.59 nM [sample B, mean of 2 tests]. The GI50 (OVCAR-8 ovarian) was 120 nM [sample A, mean of 2 tests] and 3.62 nM [sample B, mean of 2 tests], the GI50 (ACHN renal) was 139 nM [sample A, mean of 2 tests] and 3.7 nM [sample B, mean of 2 tests] and the GI50 (HOP-92 NSCLC) was 132 nM [sample A, mean of 2 tests] and 11.6 nM [sample B, mean of 2 tests]. For the same compound, the GI50 (U251 CNS) was 7.72 nM [sample A, mean of 2 tests] and 0.464 nM [sample B, 1 test], the GI50 (786-0 renal) was 42.7 nM [sample A, mean of 2 tests] and 2.92 nM [sample B, mean of 2 tests] and the GI50 (A498 renal) was 181 nM [sample A, mean of 2 tests] and 10.7 nM [sample B, mean of 2 tests]. The GI50 (HOP-62 NSCLC) was 100 nM [sample A, 1 test] and 3.15 nM [sample B, 1 test], the TGI (HOP-62 NSCLC) was 772 nM [sample A, 1 test] and 49.4 nM [sample B, 1 test] and the TGI (OVCAR-3 ovarian) was 617 nM [sample A, mean of 2 tests] and 38.3 nM [sample B, mean of 2 tests]. For the same compound, the GI50 (SR leukemia) was 3.18 nM [sample A, mean of 2 tests] and 0.306 nM [sample B, mean of 2 tests].
For COC(=O)C[C@](O)(CCCC(C)(C)O)C(=O)O[C@@H]1C(OC)=C[C@]23CCCN2CCc2cc4c(cc2[C@H]13)OCO4, the TGI (MOLT-4 leukemia) was 71.6 nM [sample A] and > 58.7 µM [sample B], the TGI (M14 melanoma) was 10 µM [sample A] and 59.9 nM [sample B] and the TGI (TK-10 renal) was 9.54 µM [sample A] and 198 nM [sample B]. For the same compound, the TGI (CCRF-CEM leukemia) was 207 nM [sample A] and > 100 µM [sample B], the TGI (OVCAR-8 ovarian) was 1.05 µM [sample A] and 101 nM [sample B] and the TGI (MDA-MB-231 breast) was 9.19 µM [sample A] and 412 nM [sample B]. The TGI (LOX IMVI melanoma) was 438 nM [sample A] and 35.5 nM [sample B], the TGI (HCT-116 colon) was 927 nM [sample A, mean of 8 tests] and 60.9 nM [sample B, mean of 2 tests] and the TGI (T-47D breast) was 14 µM [sample A] and 228 nM [sample B]. The TGI (PC-3 prostate) was > 25 µM [sample A] and 227 nM [sample B], the TGI (SK-MEL-28 melanoma) was 646 nM [sample A] and 63.8 nM [sample B] and the TGI (DU-145 prostate) was 3.75 µM [sample A] and 212 nM [sample B]. For the same compound, the TGI (SF-295 CNS) was 922 nM [sample A] and 89.7 nM [sample B], the TGI (786-0 renal) was 3.92 µM [sample A] and 168 nM [sample B] and the TGI (K-562 leukemia) was 1.57 µM [sample A] and > 100 µM [sample B]. For the same compound, the TGI (NCI-H226 lung) was 472 nM [sample A] and 42.4 nM [sample B], the TGI (HS 578T breast) was 13 µM [sample A] and 89.1 nM [sample B] and the TGI (COLO 205 colon) was 1.14 µM [sample A] and 114 nM [sample B]. The TGI (A549 NSCLC) was 1.24 µM [sample A, mean of 8 tests] and 108 nM [sample B, mean of 2 tests], the TGI (OVCAR-3 ovarian) was 1.05 µM [sample A, mean of 8 tests] and 91.2 nM [sample B, mean of 2 tests] and the TGI (MDA-MB-435) was > 25 µM [sample A] and 126 nM [sample B]. The TGI (BT-549 breast) was 18.8 µM [sample A] and 81.2 nM [sample B], the TGI (SK-MEL-5 melanoma) was 587 nM [sample A] and 40 nM [sample B] and the TGI (HT29 colon) was 827 nM [sample A] and 60.5 nM [sample B].
